From the supplement of paper PMC7335073
In all, about 4,100 sequences were measured (“relative CpG methylation activity (normalised to average over all NNNCGNNN flanks)”: median about 0.94, highest 2% from about 1.9 on). Some of the results follow.

These sequences were tested against DNMT3B catalytic domain (mouse) (UniProt O88509) (assay: relative CpG methylation activity (normalised to average over all NNNCGNNN flanks) (relative (1 = mean)); higher = more methylation of the central CpG). Details: system: in vitro, murine catalytic domain; CpG state: hemimethylated substrate pool; residues: 558-859.
Chain of UniProt O88509 (O88509 558-859): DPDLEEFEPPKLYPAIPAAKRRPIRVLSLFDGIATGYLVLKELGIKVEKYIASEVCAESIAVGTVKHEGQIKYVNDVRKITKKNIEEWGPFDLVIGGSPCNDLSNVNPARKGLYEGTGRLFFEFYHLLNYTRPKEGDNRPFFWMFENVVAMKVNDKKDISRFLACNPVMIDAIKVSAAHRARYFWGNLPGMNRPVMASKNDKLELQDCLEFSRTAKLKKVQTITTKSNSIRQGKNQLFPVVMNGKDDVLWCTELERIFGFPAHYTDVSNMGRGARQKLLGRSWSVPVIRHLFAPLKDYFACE
In short: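 Pooled dsDNA substrates with a central CpG inside 10 random flanking nucleotides were methylated by murine DNMT3A or DNMT3B catalytic domain with 0.8 mM S-adenosyl-L-methionine in HEPES pH 7.5 buffer for 60 min at 37 °C. The DNA then went through proteinase K, BsaI-HFv2 digestion, hairpin ligation, bisulfite conversion and two-step PCR before Illumina sequencing. Relative methylation activity is the average methylation of each context with three flanking bases per side, divided by the mean over all contexts. Each experiment had two independent repeats.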

Sequence	relative CpG methylation activity
TGTCGACA	1.23
CCCCGTTT	0.447
GCTCGCAG	0.329
GATCGATT	1.53
GAACGGGC	1.64
GGCCGTAT	0.194
GACCGCGA	0.184
CTGCGCCT	1.15
AAGCGCGG	0.509
TAGCGTGT	0.49
CAGCGTGG	0.339
CAGCGGGT	0.92
CAACGTCC	1.3
CCTCGTTA	0.507
TCCCGTTC	0.979
TCCCGCTT	0.754
GGTCGGCA	1.6
GATCGCGC	0.626
ATCCGGCA	1.6
CGACGGGA	1.08
GTACGCGT	1.4
TCACGTAG	0.92
CAACGATC	1.94
AGTCGAGA	1.75
TCACGTCG	1.13

Sequence	relative CpG methylation activity
GACCGGTA	0.914
GTACGATG	1.48
ACGCGTGA	0.523
GTACGACA	1.65
CAACGTGC	0.968
GGCCGATT	1.08
CTCCGTCC	1.45
GTGCGGAA	0.787
TTACGGTT	1.85
GAGCGACT	0.768
TTCCGTTC	1.42
TTTCGAGA	1.76
TACCGTCT	0.708
CATCGGAA	0.839
CCGCGTGT	0.524
TAACGGCA	1.81
GGGCGCGG	0.379
AGACGCAC	0.875
CCTCGCCA	1.05
CCACGTGG	0.387
AGACGCGT	1.03
CGGCGATT	0.829
CCACGTGC	0.938
CGTCGATT	1.22
ATACGCGA	1.04

Sequence	relative CpG methylation activity
TCGCGGGC	0.971
TAACGTGC	0.966
GCTCGACT	1.22
GCCCGAAC	1.35
CTACGGCG	2.04
ATTCGAGA	1.83
CTTCGTAT	0.699
TTTCGTGA	0.347
TAACGAGC	1.81
GGGCGGGC	0.852
CTACGTGA	1.01
TAACGACT	1.34
CCCCGCGT	0.602
AAACGAGC	1.71
ACACGTCT	1.16
TTACGAGA	1.84
TGTCGAAA	1.27
TTCCGGTA	1.33
TATCGTGC	0.651
CGGCGTGT	0.302
GGTCGCTT	0.644
GGCCGCCG	0.495
AAACGATC	1.89
AGACGTAG	0.728
GAGCGCGT	0.502

Sequence	relative CpG methylation activity
CTCCGATC	1.67
GCTCGTTA	0.419
TCTCGACC	1.03
AGCCGGCG	0.999
ACACGACA	1.42
TTCCGTGT	0.344
CCTCGCAC	0.721
AAACGCTC	1.53
CTTCGGAC	1.04
GCCCGGAA	0.765
AAACGGAC	1.27
CCTCGGGT	1.5
AATCGTCC	0.952
TGCCGAAA	0.874
ATTCGAGC	1.55
AGGCGTTC	0.514
TTTCGGGT	2.02
ACGCGTTT	0.514
CCACGATC	1.74
GTACGGAA	1.46
TTGCGCAG	0.422
GTACGGTT	1.73
CAGCGCTC	0.807
CTTCGCGA	0.724
ACGCGGTA	0.86

Sequence	relative CpG methylation activity
CGCCGAGT	1.04
CTACGGTC	1.85
GAACGCTA	1.07
TCCCGTTG	0.343
GGTCGAGA	1.53
AGCCGGCC	1.03
ACTCGAGG	1.05
TAGCGAAT	0.756
CTGCGACC	1.28
TGCCGTCC	0.701
GCACGCCC	1.28
GGTCGGAG	0.478
CAGCGGAA	0.514
TCCCGCAC	0.746
ACCCGGGA	1.28
GGCCGTTA	0.262
TGCCGGCA	1.09
CAGCGCGA	0.392
AAACGGGA	1.64
ACCCGTAG	0.505
AAGCGGCA	1.15
GGCCGAAG	0.567
TGACGAGC	1.55
CCGCGCGA	0.545
GGACGCAG	0.536

Sequence	relative CpG methylation activity
GTACGTTA	1.09
TGCCGGAG	0.172
TGACGCGG	0.734
GGCCGAAT	0.721
GAACGTCT	1.26
TCCCGTCA	0.902
AATCGAGG	1.21
GAACGACC	1.25
CTACGATG	1.83
GTCCGTTC	1.25
AACCGGAC	0.54
CTCCGACA	1.69
CGACGTGT	0.313
GCGCGTAC	0.753
ATCCGTTG	0.439
GCTCGAAG	0.715
TCACGAAG	1.09
ATACGATA	2.03
CTCCGCCA	1.15
CAGCGTTT	0.45
CCCCGCGA	0.66
CCTCGATG	1.19
ACACGCTG	1.11
CGCCGTCC	0.86
AGTCGTGA	0.198

Sequence	relative CpG methylation activity
AGCCGAGT	0.765
GGTCGGAT	0.427
GCGCGCAA	0.357
AAACGCAG	0.838
TTACGACG	1.68
TGTCGGCT	1.48
CCACGCGC	1.32
TAGCGTCT	0.609
CGACGCTT	0.811
AATCGGCC	1.88
AGGCGTAA	0.335
CCACGGCA	1.74
ACCCGACG	1.21
AGCCGTTG	0.111
GGGCGGGG	0.765
TGACGTAT	0.762
CACCGAAA	1.15
AGACGTCA	0.88
AATCGTGT	0.159
ACTCGGCT	1.95
GGCCGGCC	0.963
ATGCGACA	1.19
